Our source for the Inhibition % values is paper PMC9574860, “Chemical Toolkit for PARK7: Potent, Selective, and High-Throughput” (Journal of Medicinal Chemistry, 2022).

The campaign covered roughly 7,900 compounds. About 400 (5.1%) showed an effect of 50% or more. The list shows a part of the results.

For the assay, the target named is Parkinson's disease protein 7 (PARK7/DJ1) (human, UniProt Q99497). Description: primary screen, percent inhibition; read as competition with a fluorescent probe by fluorescence polarization; higher = more effect of the substance. To be noted: 100 µM. The gist of the method: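 Fluorescence-polarization probe displacement (JYQ-107, 20 nM final, 2 h) after 2 h preincubation of PARK7 (0.2 μM final) with each fragment at 100 μM final. Read-out ex/em 480/520 nm; remaining activity derived from FP signal loss relative to reference controls.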
Chain of Parkinson's disease protein 7 (PARK7/DJ1) (Q99497 whole entry, looked up, the tested form may be a part): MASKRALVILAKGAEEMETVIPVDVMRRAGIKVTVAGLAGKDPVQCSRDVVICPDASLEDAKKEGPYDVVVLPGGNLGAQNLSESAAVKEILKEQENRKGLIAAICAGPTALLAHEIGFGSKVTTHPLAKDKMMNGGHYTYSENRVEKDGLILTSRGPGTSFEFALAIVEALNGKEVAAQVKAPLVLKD
Regarding `CC(C)C1NC(=O)C12CCCO2` (stereo not shown), the Inhibition % came to 4.3%.

For the compound `O=C1NC(C2CCOCC2)C12CCC2` (stereo not shown), the Inhibition % was 8.16%.

`N#Cc1[nH]nnc1-c1ccccc1`: the Inhibition % was found to be 7.59%.

On to `N#Cc1ccncc1C(=O)O`, for which the Inhibition % stood at 12.3%.

Consider `N#Cc1ccc(N2CCCC2CF)cn1` (stereo not shown), for which the Inhibition % worked out at 6.88%.

Take `CCCNCc1ccc(B2OC(C)(C)C(C)(C)O2)cc1`: the Inhibition % worked out at 6.99%.

Take `CC1N=C(S)N(CCc2ccccc2)C1=O` (stereo not shown): the Inhibition % is given as 3.61%.

As to `O=C(CCl)Nc1ccccc1C(=O)c1ccccc1`, the Inhibition % is 8.12%.

As for `O=C(CCl)NC(=O)NC1CC1`, the Inhibition % is recorded as 10.7%.

With `CC(C)(C)Nc1cc(F)c(S(=O)(=O)F)cc1N`, the Inhibition % is given as 7.67%.

As to `O=C(Nc1ccc(-c2noc(=O)[nH]2)cc1)C1CC1`, the Inhibition % stood at 5.01%.

With `O=C(O)C1CC(c2ccccc2)OC1=O` (stereo not shown), the Inhibition % worked out at 9.1%.

`N#Cc1ccc(S(=O)(=O)F)cc1`: the Inhibition % was found to be 60.6%.

With `OB(O)c1cccc2c1OC(F)(F)O2`, the Inhibition % was 4.86%.

Turning to `Cc1cc(C(=O)CCl)c(C)n1CC1CCCO1` (stereo not shown), the Inhibition % is 3.43%.

Turning to `CC1(C)COCCN1Cn1nc(-c2ccccc2)oc1=O`, the Inhibition % is 8.59%.

With `N#Cc1nc(Cl)cc(N)c1N`, the Inhibition % turned out to be 13.7%.

For `CC1CC(Sc2nccn2-c2ccccc2)C(=O)O1` (stereo not shown), the Inhibition % worked out at 6.06%.

As to `O=C(CCl)NNC(=O)Cc1cccc2ccccc12`, the Inhibition % came to 3.35%.

Regarding `CC1Oc2ccc(B3OC(C)(C)C(C)(C)O3)cc2NC1=O` (stereo not shown), the Inhibition % worked out at 12.4%.

With `O=c1[nH]c(-c2ccccc2)no1`, the Inhibition % stood at 34.7%.

Consider `OB(O)c1ccc(Cn2ccnc2)cc1`, for which the Inhibition % is given as 6.33%.

`O=S1(=O)CCC(Cl)CC1`: the Inhibition % is 2.86%.

In the case of `O=c1oc(-c2ccc(F)cc2)nn1CN1CCSCC1`, the Inhibition % was found to be 1.98%.

Take `C=CC(=O)N[C@@H]1CCC(=O)N[C@H]1c1ccnn1C`: the Inhibition % stood at 8.62%.

As for `C=CS(=O)(=O)C1CCCC1`, the Inhibition % was 10.5%.

For `CN(CC1CCCCC1)C1CCOC1=O` (stereo not shown), the Inhibition % is 4.81%.

On to `C=CC(=O)N1CCN(C(C)c2ccc(F)cc2F)CC1` (stereo not shown), for which the Inhibition % stood at 15.3%.

Take `Cl.NCCCNS(=O)(=O)C=Cc1ccccc1Cl`: the Inhibition % is 14.8%.

For `C=CC(=O)N1CCCC(C(N)=O)C1` (stereo not shown), the Inhibition % is given as -0.0694%.

In the case of `C=CC(=O)N1CCCC1c1ccc(F)cc1` (stereo not shown), the Inhibition % was 7.08%.

On to `C=CC(=O)N1CCOC(C2CC2)C1` (stereo not shown), for which the Inhibition % was found to be 9.62%.

As for `C=CC(=O)N1CCN(c2cc(C)nc3ncnn23)CC1`, the Inhibition % was 8.09%.

With `O=C(CCl)Nc1ccccc1N1CCCC1=O`, the Inhibition % is -0.367%.

For the compound `COc1ccc(NS(=O)(=O)C=Cc2ccccc2)cc1`, the Inhibition % is 1.18%.

For `CC1CCc2ccccc2N1C(=O)CCl` (stereo not shown), the Inhibition % is listed as 100%.

With `COc1ccc(N(CC(F)(F)F)C(=O)CCl)cc1`, the Inhibition % turned out to be 36.5%.

On to `Cc1cccc(C(=O)O)c1NC(=O)CCl`, for which the Inhibition % came out at 5.7%.

For the compound `C=CC(=O)NC1CCc2ccccc2C1` (stereo not shown), the Inhibition % is 10.4%.

Consider `Cc1cccc(S(=O)(=O)CCCn2ccnc2C#N)c1`, for which the Inhibition % is -0.0399%.

As for `C=CC(=O)N1CCC(C(=O)O)(c2ccccc2)C1` (stereo not shown), the Inhibition % is 7.9%.

In the case of `O=C(CCl)NCC#Cc1cccc(C(F)(F)F)c1`, the Inhibition % is 6.88%.

Consider `CN(CCOc1ccc(Cl)cc1)C(=O)CCl`, for which the Inhibition % was determined as 63.6%.

In the case of `Cc1[nH]c(=O)nc(S)c1C(=O)O`, the Inhibition % is given as 18.1%.

Turning to `C=CC(=O)NC1CCCc2c1cnn2CC` (stereo not shown), the Inhibition % was 8.99%.

Take `CC1(C)OB(c2cccc(C(F)(F)C(F)(F)F)c2)OC1(C)C`: the Inhibition % worked out at 5.14%.

As to `CN(C)C(=O)n1nnc2ccccc21`, the Inhibition % was 6.1%.

For `C=CC(=O)N(Cc1ccc(OC)cc1)C1CCS(=O)(=O)C1` (stereo not shown), the Inhibition % is recorded as 6.03%.

In the case of `O=C1OCCC1Sc1nc2ncccn2n1` (stereo not shown), the Inhibition % turned out to be 4.5%.

Consider `CC(C(=O)N1CCc2ccccc21)N1C(=O)CCC1=O` (stereo not shown), for which the Inhibition % stood at 15%.

As for `O=C1NC(c2ccccc2)C12CCCCC2` (stereo not shown), the Inhibition % turned out to be 25.3%.

Take `C=CC(=O)N1CCC(NC(C)=O)(c2nc(C)cs2)C1` (stereo not shown): the Inhibition % is reported as 5.8%.

As to `C=CC(=O)N1CCN(CC2CCCO2)CC1` (stereo not shown), the Inhibition % stood at 22.1%.

As for `Cc1ccc(C=CC(=O)N2CCCC(NS(C)(=O)=O)C2)o1` (stereo not shown), the Inhibition % was found to be 6.42%.

In the case of `CC(C1CC1)N(C(=O)c1ccc(S(=O)(=O)F)cc1)C1CC1` (stereo not shown), the Inhibition % came to 3.18%.

For `C=CC(=O)N[C@H]1CCc2ncsc2C1`, the Inhibition % was found to be 17.4%.

In the case of `O=C(O)C1CN(C(=O)C=Cc2ccc(Cl)s2)CCO1` (stereo not shown), the Inhibition % was 7.53%.

Regarding `O=C1OCCC1N1CC=C(c2ccc(O)cc2)CC1` (stereo not shown), the Inhibition % is reported as -1.55%.

`C=CC(=O)N1CC(c2ccsc2)CC1C` (stereo not shown): the Inhibition % worked out at 13.7%.

As to `O=C(CCl)Nc1ccc(F)c([N+](=O)[O-])c1`, the Inhibition % is 14.3%.

For `COc1ccc([C@@H]2O[C@H]2C)cc1` (racemic), the Inhibition % worked out at 6.69%.

Turning to `O=C(CCl)NC1CC1`, the Inhibition % was found to be 9.12%.

Take `COC(OC)c1cc[nH]n1`: the Inhibition % is 0.954%.

In the case of `C=CC(=O)N1CCN(C(=O)c2cnoc2C)CC1`, the Inhibition % turned out to be 2.64%.
